The record followed here is US11161864B2, “Sting agonists” (Venenum Biodesign, LLC, priority 2018, dated 2021).

Like-named read-outs stand apart in the source and are kept apart here. Where only a bound is given, the exact number is not on record here.

Experiment [1] deals with STING pathway, RAW-Dual Reporter cell line. Put plainly: cells.
Experiment [2] has as its target wildtype (WT) STING protein, THP1 Dual (WT) human cells (Homo sapiens (Human), UniProt Q86WV6, H232R). In words: cell-based. To be noted: for EC50: Human WT Agonist EC50, 5 hrs; for Emax: THP1-Dual, 5 h, read-out: Human WT Agonist Efficacy, 5 hrs.
For experiment [3], the target named is HAQ STING protein, THP1 Dual (HAQ) human cells (Homo sapiens (Human), UniProt Q86WV6, G230A/H232R/R293Q/R71H). In words: cell-based. Particulars: for EC50: Human HAQ Agonist EC50, 5 hrs; for Emax: THP1-Dual, 5 h, read-out: Human HAQ Agonist Efficacy, 5 hrs.
Setting [4] is: Mus musculus, 5 h, read-out: Murine Agonist EC50, 5 hrs.
[5] abbreviates: Mus musculus, 5 h, read-out: Murine Agonist Efficacy, 5 hrs.
The mark [6] stands for this setting: read-out: Murine Agonist EC50, 5 hrs.

Chain of wildtype (WT) STING protein, THP1 Dual (WT) human cells (Q86WV6 whole entry H232R): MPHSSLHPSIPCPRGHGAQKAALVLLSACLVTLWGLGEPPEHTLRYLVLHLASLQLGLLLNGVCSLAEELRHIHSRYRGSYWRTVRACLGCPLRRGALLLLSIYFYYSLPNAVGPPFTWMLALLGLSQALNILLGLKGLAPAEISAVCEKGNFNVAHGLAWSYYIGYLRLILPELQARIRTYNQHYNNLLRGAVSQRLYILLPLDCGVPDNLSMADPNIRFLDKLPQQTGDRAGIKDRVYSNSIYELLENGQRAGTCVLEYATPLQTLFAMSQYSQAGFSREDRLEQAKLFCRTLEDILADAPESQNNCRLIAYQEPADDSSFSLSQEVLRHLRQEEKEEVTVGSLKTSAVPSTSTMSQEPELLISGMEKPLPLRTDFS
Chain of HAQ STING protein, THP1 Dual (HAQ) human cells (Q86WV6 whole entry R71H/G230A/H232R/R293Q): as the sequence (Q86WV6 whole entry H232R) above, with R71H, G230A, R293Q counted along it

For `Nc1nc2c(ncn2[C@@H]2O[C@@H]3COP(=O)(S)OCCn4c(nc5cncnc54)COP(=O)(S)O[C@@H]2[C@@H]3O)c(=O)[nH]1` (mixture of isomers) [Example 15A, (1R,21R,23R,24R)-23-(2-Amino-6-oxo-6,9-dihydro-1H-purin-9-yl)-24-hydroxy-3,18-disulfanyl-2,4,17,19,22-pentaoxa-7,10,12,14-tetraaza-3lambda5,18lambda5-diphosphatetracyclo[19.2.1.06,14.08,13]tetracosa-6,8,10,12-tetraene-3,18-dione], the EC50 (usually the concentration needed to bring the measured effect to its halfway point) in experiment [1] (setting [4]) was under 10 µM.

As for `Nc1nc2c(ncn2[C@@H]2O[C@@H]3COP(=O)(S)OCCn4c(nc5cncnc54)COP(=O)(S)O[C@@H]2[C@@H]3F)c(=O)[nH]1` (single isomer, unassigned) [Example 1C], the concentration for a half-maximal effect (EC50) in experiment [2], in experiment [3] and in experiment [1] (setting [4]) was under 10 µM in each case. Besides, the Emax in experiment [2], in experiment [3] and in experiment [1] (setting [5]) was over 100% in each case.

Take `Nc1nc2c(ncn2[C@@H]2O[C@@H]3COP(=O)(S)OCCn4c(nc5c(=O)[nH]cnc54)COP(=O)(S)O[C@@H]2[C@@H]3F)c(=O)[nH]1` (single isomer, unassigned) [Example 3B]: the results for the Emax in experiment [2], in experiment [3] and in experiment [1] (setting [5]) were under 100%, under 100% and over 100%, respectively. In experiment [1] (setting [4]), the 50% effective concentration (EC50) is under 10 µM.

For `Nc1nc2c(ncn2[C@@H]2O[C@@H]3COP(=O)(S)OCCn4c(nc5c(=O)[nH]cnc54)COP(=O)(S)O[C@@H]2[C@@H]3F)c(=O)[nH]1` (single isomer, unassigned) [Example 3C], the concentration for a half-maximal effect (EC50) in experiment [1] (setting [6]) was under 10 µM.

For `Nc1nc2c(ncn2[C@@H]2O[C@@H]3COP(=O)(S)OCCn4c(nc5c(=O)[nH]cnc54)COP(=O)(S)O[C@@H]2[C@@H]3F)c(=O)[nH]1` (single isomer, unassigned) [Example 3D], in experiment [1] (setting [6]), the half-maximal effective concentration (EC50) is 10 to 99.9 µM.

As to `Nc1nc2c(ncn2[C@@H]2O[C@@H]3COP(=O)(O)OCCn4c(nc5cncnc54)COP(=O)(S)O[C@@H]2[C@@H]3F)c(=O)[nH]1` (single isomer, unassigned) [Example 5A], the EC50 in experiment [1] (setting [4]) was under 10 µM.

Consider `Nc1nc2c(ncn2[C@@H]2O[C@@H]3COP(=O)(O)OCCn4c(nc5cncnc54)COP(=O)(S)O[C@@H]2[C@@H]3F)c(=O)[nH]1` (single isomer, unassigned) [Example 5B], for which the half-maximal effective concentration (EC50) in experiment [1] (setting [6]) lay in the range of 10 to 99.9 µM.

Regarding `Nc1nc2c(ncn2[C@@H]2O[C@@H]3COP(=O)(S)OCCn4c(nc5cncnc54)COP(=O)(O)O[C@@H]2[C@@H]3F)c(=O)[nH]1` (single isomer, unassigned) [Example 6A], in experiment [1] (setting [4]), the EC50 is 10 to 99.9 µM.

`Nc1nc2c(ncn2[C@@H]2O[C@@H]3COP(=O)(S)OCCn4c(nc5cncnc54)COP(=O)(O)O[C@@H]2[C@@H]3F)c(=O)[nH]1` (single isomer, unassigned) [Example 6B]: in experiment [1] (setting [6]), the EC50 was under 10 µM.

For `Nc1nc2c(ncn2[C@@H]2O[C@@H]3COP(=O)(S)OCCn4c(nc5c(N)ncnc54)COP(=O)(S)O[C@@H]2[C@@H]3F)c(=O)[nH]1` (single isomer, unassigned) [Example 7A], the EC50 was 100 to 999 µM in experiment [2], under 10 µM in experiment [3] and under 10 µM in experiment [1] (setting [4]).

On to `Nc1nc2c(ncn2[C@@H]2O[C@@H]3COP(=O)(S)OCCn4c(nc5cnc(C6CC6)nc54)COP(=O)(S)O[C@@H]2[C@@H]3F)c(=O)[nH]1` (single isomer, unassigned) [Example 12C], for which the Emax in experiment [2], in experiment [3] and in experiment [1] (setting [5]) was under 100% throughout. Moreover, in experiment [1] (setting [4]), the EC50 is under 10 µM.

Consider `Nc1nc2c(ncn2[C@@H]2O[C@@H]3COP(=O)(S)OCCn4c(nc5cnc(C6CC6)nc54)COP(=O)(S)O[C@@H]2[C@@H]3F)c(=O)[nH]1` (single isomer, unassigned) [Example 12D], for which the EC50 in experiment [1] (setting [6]) was 10 to 99.9 µM.

With `Nc1nc2ncn([C@@H]3O[C@@H]4COP(=O)(S)OCCn5c(nc6cc(Cl)cnc65)COP(=O)(S)O[C@@H]3[C@@H]4F)c2c(=O)[nH]1` (single isomer, unassigned) [Example 13A], the EC50 in experiment [2] was 10 to 99.9 µM; in experiment [3], under 10 µM; in experiment [1] (setting [4]), under 10 µM.

With `Nc1nc2ncn([C@@H]3O[C@@H]4COP(=O)(S)OCCn5c(nc6cc(Cl)cnc65)COP(=O)(S)O[C@@H]3[C@@H]4F)c2c(=O)[nH]1` (single isomer, unassigned) [Example 13B], the EC50 in experiment [2] is over 1000 µM; in experiment [3], 10 to 99.9 µM; in experiment [1] (setting [6]) it was 10 to 99.9 µM. Also, the Emax in experiment [2] is under 100%; in experiment [3], under 100%; in experiment [1] (setting [5]), over 100%.

In the case of `Nc1nc2c(ncn2[C@@H]2O[C@@H]3COP(=O)(S)OCCn4c(nc5cc(Cl)cnc54)COP(=O)(S)O[C@@H]2[C@@H]3F)c(=O)[nH]1` (single isomer, unassigned) [Example 14A], the EC50 in experiment [1] (setting [4]) was under 10 µM.

In the case of `Nc1nc2c(ncn2[C@@H]2O[C@@H]3COP(=O)(S)OCCn4c(nc5cncnc54)COP(=O)(S)O[C@@H]2[C@@H]3O)c(=O)[nH]1` (single isomer, unassigned) [Example 15C], the EC50 in experiment [1] (setting [4]) was 10 to 99.9 µM.

As for `Nc1nc2c(ncn2[C@@H]2O[C@@H]3COP(=O)(S)OCCn4c(nc5cncnc54)COP(=O)(S)O[C@@H]2[C@@H]3O)c(=O)[nH]1` (single isomer, unassigned) [Example 15D], in experiment [1] (setting [6]), the half-maximal effective concentration (EC50) is under 10 µM.

In the case of `Nc1nc2c(ncn2[C@@H]2O[C@@H]3COP(=O)(S)OCCn4nc(-c5cncs5)nc4COP(=O)(S)O[C@@H]2[C@@H]3F)c(=O)[nH]1` (single isomer, unassigned) [Example 16A], the concentration for a half-maximal effect (EC50) in experiment [1] (setting [4]) was under 10 µM.

Regarding `Nc1nc2c(ncn2[C@@H]2O[C@@H]3COP(=O)(S)OCCn4c(nc5cnccc54)COP(=O)(S)O[C@@H]2[C@@H]3F)c(=O)[nH]1` (single isomer, unassigned) [Example 17C], the EC50 was 10 to 99.9 µM in experiment [2], under 10 µM in experiment [3] and under 10 µM in experiment [1] (setting [4]).

As for `Nc1nc2c(ncn2[C@@H]2O[C@@H]3COP(=O)(S)OCC(F)(F)Cn4c(nc5cncnc54)COP(=O)(S)O[C@@H]2[C@@H]3F)c(=O)[nH]1` (single isomer, unassigned) [Example 19A], the EC50 in experiment [1] (setting [6]) lay within 100 to 999 µM.

On to `Nc1nc2c(ncn2[C@@H]2O[C@@H]3COP(=O)(S)OCC(F)(F)Cn4c(nc5cncnc54)COP(=O)(S)O[C@@H]2[C@@H]3F)c(=O)[nH]1` (single isomer, unassigned) [Example 19C], for which the Emax in experiment [2] was under 100%; in experiment [3], over 100%; in experiment [1] (setting [5]), under 100%. Further, the half-maximal effective concentration (EC50) in experiment [1] (setting [6]) was in the range of 100 to 999 µM.

In the case of `Nc1nc2c(ncn2[C@@H]2O[C@@H]3COP(=O)(S)OCCn4c(nc5cncnc54)COP(=O)(S)O[C@@H]2C3)c(=O)[nH]1` (single isomer, unassigned) [Example 22A], the EC50 in experiment [1] (setting [4]) was 10 to 99.9 µM.

As for `Nc1nc2c(nc3n2CCOP(=O)(S)OC[C@H]2O[C@@H](n4cnc5c(N)ncnc54)[C@H](OP(=O)(S)OC3)[C@@H]2F)c(=O)[nH]1` (single isomer, unassigned) [Example 23D], in experiment [1] (setting [4]), the EC50 fell in the range of 10 to 99.9 µM.

On to `Nc1nc2c(nnn2[C@@H]2O[C@@H]3COP(=O)(S)OCCn4c(nc5cncnc54)COP(=O)(S)O[C@@H]2[C@@H]3F)c(=O)[nH]1` (single isomer, unassigned) [Example 24A], for which the EC50 in experiment [1] (setting [4]) was under 10 µM.

With `C[C@H]1Cn2c(nc3cncnc32)COP(=O)(S)O[C@@H]2[C@H](F)[C@@H](COP(=O)(S)O1)O[C@H]2n1cnc2c(=O)[nH]c(N)nc21` (single isomer, unassigned) [Example 33B], in experiment [1] (5 hrs), the “Murine Agonist Efficacy” value is recorded as under 100%. The EC50 in experiment [1] (setting [6]) was 100 to 999 µM.

As to `C[C@H]1Cn2c(nc3cncnc32)COP(=O)(S)O[C@@H]2[C@H](F)[C@@H](COP(=O)(S)O1)O[C@H]2n1cnc2c(=O)[nH]c(N)nc21` (single isomer, unassigned) [Example 33C], the “Murine Agonist Efficacy” value in experiment [1] (5 hrs) is under 100%. Besides, the EC50 in experiment [1] (setting [6]) was in the range of 100 to 999 µM.

As to `C[C@H]1Cn2c(nc3cncnc32)COP(=O)(S)O[C@@H]2[C@H](F)[C@@H](COP(=O)(S)O1)O[C@H]2n1cnc2c(=O)[nH]c(N)nc21` (single isomer, unassigned) [Example 33D], the “Murine Agonist Efficacy” value in experiment [1] (5 hrs) is under 100%. The concentration giving a half-maximal response (EC50) in experiment [1] (setting [6]) was under 10 µM.

For the compound `Nc1nc2c(ncn2[C@@H]2O[C@@H]3COP(=O)(S)OCCn4nc(-c5ccncc5)nc4COP(=O)(S)O[C@@H]2[C@@H]3F)c(=O)[nH]1` (single isomer, unassigned) [Example 34C], the 50% effective concentration (EC50) in experiment [1] (setting [6]) is under 10 µM.

Consider `Nc1nc2c(ncn2[C@@H]2O[C@@H]3COP(=O)(S)OCCn4nc(-c5ccncc5)nc4COP(=O)(S)O[C@@H]2[C@@H]3F)c(=O)[nH]1` (single isomer, unassigned) [Example 34D], for which the EC50 in experiment [1] (setting [6]) fell in the range of 10 to 99.9 µM.

Regarding `Nc1nc2c(ncn2[C@@H]2O[C@@H]3COP(=O)(O)OCCCn4c(nc5cncnc54)COP(=O)(O)O[C@@H]2[C@@H]3O)c(=O)[nH]1` [Example 2, (1R,22R,24R,25R)-24-(2-Amino-6-oxo-6,9-dihydro-1H-purin-9-yl)-3,19,25-trihydroxy-2,4,18,20,23-pentaoxa-710,122,14-tetraaza-3lambda5,19lambda5-diphosphatetracyclo[20.2.1.06,14.08,13]pentacosa-6,8(13),9,11-tetraene-3,19-dione], in experiment [3], the concentration for a half-maximal effect (EC50) fell in the range of 100 to 999 µM and the Emax is over 100%.

Consider `Nc1nc2c(ncn2[C@@H]2O[C@@H]3COP(=S)(S)OCCn4c(nc5cncnc54)COP(=O)(S)O[C@@H]2[C@@H]3F)c(=O)[nH]1` (stereo partly drawn) [Example 39, (1S,21R,23R,24R)-23-(2-Amino-6-oxo-6,9-dihydro-1H-purin-9-yl)-24-fluoro-3,18-disulfanyl-18-sulfanylidene-2,4,17,19,22-pentaoxa-7,10,12,14-tetraaza-3lambda5,18lambda5-diphosphatetracyclo[19.2.1.06,14.08,13]tetracosa-6,8(13),9,11-tetraen-3-one], for which, in experiment [1] (setting [4]), the half-maximal effective concentration (EC50) was under 10 µM. Besides, the Emax in experiment [1] (Mus musculus, 5 h, read-out: Murine Agonist Efficacy) was over 100%.
